According to PubChem BioAssay AID504832 (National Center for Advancing Translational Sciences (NCATS), 2011):
In all, about 310,000 compounds went through this assay and about 18,000 (5.8%) were called active. The shares of active, inactive and inconclusive entries below differ from those in the screen. The call rests on the fitted dose curve; in most records, active means well fitted inhibition curve with a large enough effect; inconclusive means small, poorly fitted or top-dose-only effect, or another doubt; inactive means no such curve, though single readings can be large or run the other way. Potencies of inconclusive entries are left out as doubtful fits.

assay: Primary qHTS for delayed death inhibitors of the malarial parasite plastid, 48 hour incubation; conditions: P. falciparum luciferase growth in erythrocytes; series mostly up to 28.7 µM
Procedure, shortened: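 Growth was read as firefly luciferase luminescence after a 48 h, 37 C, 5% CO2 exposure of compounds to reporter-bearing P. falciparum cultures (0.1% parasitemia, 2% hematocrit final) in Albumax-supplemented RPMI 1640.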
Potency means the concentration at half of the fitted maximal effect; tags describe the fitted curve by direction and shape.

Structure (SMILES) | Potency
COc1ccc(NC(=O)C2CCC(=O)N2S(=O)(=O)c2ccc(C)cc2)cc1Cl (stereo not drawn) | inactive
COc1ccc(C(Nc2cccc([N+](=O)[O-])c2)P(=O)(OC(C)C)OC(C)C)cc1 (stereo not drawn) | inconclusive [inhibitor, full curve]
COc1ccc(NC(=O)O/N=C/c2ccccc2Cl)cc1 | inactive
Cc1cc(/C=N/NC(=O)Cn2c3ccccc3c(=O)c3ccccc32)c(C)n1-c1ccccc1 | inconclusive [inhibitor, partial curve, poor fit]
Cc1cccc(NC(=O)Cc2cccs2)n1 | inactive
Cc1nc2ccccc2n1CCc1nc2c3ccccc3nc(SCC(=O)NCc3ccco3)n2n1 | inconclusive [inhibitor, partial curve, poor fit]
Cc1ccc(N2CCN(C(=O)Nc3cccc([N+](=O)[O-])c3)CC2C)cc1 (stereo not drawn) | inconclusive [inhibitor, single point]
Cc1ccc(N2C(=S)N=C(Nc3ccccc3C)C23CCOC(C)(C)C3)cc1 (stereo not drawn) | inconclusive [inhibitor, partial curve]
COc1ccccc1/C=C(/C(=O)OCC(=O)Nc1ccc(N(C)C)cc1)c1ccccc1 | inactive
O=C(NCc1ccco1)c1ccccc1O | inactive
COc1cc(OC)c(C2=Nc3ccc(Br)cc3C(c3ccccc3)N2CC(=O)NN)cc1OC (stereo not drawn) | inconclusive [inhibitor, single point]
CCCn1c(N)c(C(=O)CSc2nc3ccccc3s2)c(=O)[nH]c1=O | inconclusive [inhibitor, single point]
COc1ccc(-c2c3c(=O)n(C)c(=O)n(C)c3cn2-c2ccccc2O)cc1 | inconclusive [inhibitor, partial curve]
CCCCCC(=O)Nc1cc(S(=O)(=O)N2CCOCC2)ccc1Oc1ccc(OCC)cc1 | inconclusive [inhibitor, single point]
O=C(Nc1ccccc1)N1CCN(c2cccc(C(F)(F)F)c2)CC1 | inconclusive [inhibitor, single point]
COc1ccc(CNC(=O)C2CC(c3ccccc3C(F)(F)F)=NO2)cc1 (stereo not drawn) | inactive
Cn1nc([N+](=O)[O-])nc1Oc1ccc(C(C)(C)C)cc1 | inconclusive [inhibitor, partial curve, poor fit]
CN(C)c1ccc(/C=N/N(CCC(=O)NC(C)(C)C)C2=NS(=O)(=O)c3ccccc32)cc1 | inconclusive [inhibitor, full curve]
CCN(CC)CCCN(C(=O)c1cccc(C)c1)c1nc(-c2ccc(OC)cc2)cs1 | inconclusive [inhibitor, single point]
O=C(c1cc(-c2ccccn2)nc2ccc(Cl)cc12)N1CCN(CCc2ccccc2)CC1 | inconclusive [inhibitor, partial curve]
COc1ccc(NC(=O)CN(C)C(=O)Cc2ccc(S(=O)(=O)N3CCOCC3)s2)cc1 | inconclusive [inhibitor, single point]
Cc1ccc(C)c(NC(=O)c2cc(S(=O)(=O)N3CCOCC3)cn2C)c1 | inactive

Structure (SMILES) | Potency
FC(F)(F)c1ccc(Cl)c(NC(=S)N/N=C/c2ccccc2Cl)c1 | inconclusive [inhibitor, single point]
CCCC1=Nc2cc(C(=O)N3CCC(C(N)=O)CC3)ccc2Sc2ccccc21 | inconclusive [inhibitor, partial curve, poor fit]
COc1ccc(CNC(=O)CN(c2ccccc2)S(=O)(=O)N(C)C)cc1 | inactive
c1ccc(CCCNc2ncnc3nc[nH]c23)cc1 | inactive
Cc1ccc(-c2cc(-c3ccccc3)[nH]c(=S)c2C#N)cc1 | inconclusive [inhibitor, single point]
O=C(CSc1ncc(-c2ccc(F)cc2)n1Cc1ccco1)Nc1ccc2c(c1)OCO2 | inconclusive [inhibitor, single point]
N#Cc1c(NC(=O)CSc2ncn[nH]2)sc2c1CCCCC2 | active: 9.28 µM
CCC(C)(C)C(=O)Nc1cc([N+](=O)[O-])ccc1F | inactive
Cc1ccc2[nH]c(=O)c(CN(Cc3cccnc3)C(=S)NCCCN(C)C)cc2c1 | active: 14.7 µM
CSc1nc(SCC(=O)NCc2ccco2)c2c3c(sc2n1)COC(C)(C)C3 | inconclusive [inhibitor, single point]
Cc1cc(C)c(C(=O)COC(=O)C2CC3CCCC(C2)C3=O)c(C)c1 (stereo not drawn) | inconclusive [inhibitor, partial curve]
O=C1c2ccccc2CN1c1ccccc1 | inactive
COc1cccc(C(=O)NC2CCN(CC(=O)Nc3c(C)cc(C)cc3C)CC2)c1 | inconclusive [inhibitor, partial curve, poor fit]
COc1cc2c(O)c3c(c(-c4ccc5c(c4)OCO5)c2cc1OC)C(=O)OC3 | inconclusive [inhibitor, partial curve]
O=C(Nc1cc(-c2nc3ncccc3o2)ccc1Cl)c1ccc([N+](=O)[O-])o1 | inconclusive [inhibitor, partial curve]
O=C(COC(=O)c1nc(Cl)c(Cl)c(Cl)c1Cl)c1ccc[nH]1 | inactive
O=C(Nc1ccnn1C1CCN(Cc2cccc(F)c2F)CC1)C1CCCC1 | inconclusive [inhibitor, partial curve, poor fit]
CCCCN(CC)CCCNC(=O)c1cc2c(=O)n(C)c3ccccc3c2n1C | inconclusive [inhibitor, single point]
Cc1cc(Cl)ccc1NC(=S)Nc1cccnc1 | inactive
CCCCCCCCCCOC(=O)Cn1c(COc2ccccc2OC)[n+](C)c2ccccc21 | active: 1.65 µM
C#CCOCCOCCOCCNc1nc(N2CCN(C(=O)CCCCCCCCCCNC(=O)[C@H]([C@@H](C)CC)n3cc(CCCCCN)nn3)CC2)nc(N2CCN(C(=O)CCCCCCCCCCNC(=O)[C@@H]([C@H](C)CC)n3cc(CCCCCN)nn3)CC2)n1 | active: 3.29 µM
